The results in this text go back to PubChem BioAssay AID360 (National Center for Advancing Translational Sciences (NCATS), 2006).

The campaign covered roughly 48,000 compounds. About 550 (1.1%) were called active. Inconclusive results (about 4%) are left out. Rule as the data show it: active = potency below about 15 µM; inconclusive = mostly about 16 µM to 33 µM; inactive = weaker than that. This is one part of the list.
Potency is read from the fitted curve at half-maximal effect.

The experiment deals with Lysosomal acid glucosylceramidase (Homo sapiens) (UniProt P04062). The experiment can be described thus: Glucocerebrosidase.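 Also: the screen sought inhibitors.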 Particulars: purified enzyme, resorufin glucoside fluorescence (screen aimed at inhibitors), 20 min; series mostly up to 77 µM. The source says: NCGC Assay Overview: Beta-glucocerebrosidase catalyzes the hydrolysis of beta-glucocerebroside to glucose and ceramide. The inherited deficiency of beta-glucocerebrosidase results in Gaucher disease, which is characterized by a wide variety of symptoms including hepatosplenomegaly, anemia, thrombocytopenia, bony lesions and bone marrow infiltration with characteristic storage cells, known as Gaucher cells. There are also forms of the disorder affecting the central nervous system. Patients with the same genotypes can manifest with diverse clinical presentations and it is believed that improper folding and trafficking of beta-glucocerbrosidase may contribute to the phenotypes observed. Low molecular weight molecules, acting as chaperones, may potentially restore trafficking of misfolded beta-glucocerebrosidase from the endoplasmic reticulum to the lysosomes, thereby enhancing functional lysosomal beta-glucocerebrosidase activity. Using normal beta-glucocerebrosidase, an assay was developed to screen for small molecule inhibitors that could potentially act as molecular chaperones on the mutant forms [developed with NIH investigator Dr. Ellen Sidransky's laboratory]. Two pro-fluorescent substrates were chosen for two screens against a small molecule library. One beta-glucocerebrosidase assay used Resorufin beta-D-Glucopyranoside (Marker Gene Technology Inc.), generating a red fluorescent product. The second assay used Fluorescein di-beta-D-Glucopyranoside, generating a blue fluorescent product. […] The IC50 values of Conduritol B Epoxide, a known glucocerebrosidase inhibitor, were determined to be 87.5 uM and 117 uM, respectively. The use of two difference pro-fluorescent substrates in the screens helped to eliminate false positives. All compounds were screened in a titration series resulting in AC50s (e.g., IC50s or EC50s).
Sequence of UniProt P04062 (P04062 whole entry, looked up): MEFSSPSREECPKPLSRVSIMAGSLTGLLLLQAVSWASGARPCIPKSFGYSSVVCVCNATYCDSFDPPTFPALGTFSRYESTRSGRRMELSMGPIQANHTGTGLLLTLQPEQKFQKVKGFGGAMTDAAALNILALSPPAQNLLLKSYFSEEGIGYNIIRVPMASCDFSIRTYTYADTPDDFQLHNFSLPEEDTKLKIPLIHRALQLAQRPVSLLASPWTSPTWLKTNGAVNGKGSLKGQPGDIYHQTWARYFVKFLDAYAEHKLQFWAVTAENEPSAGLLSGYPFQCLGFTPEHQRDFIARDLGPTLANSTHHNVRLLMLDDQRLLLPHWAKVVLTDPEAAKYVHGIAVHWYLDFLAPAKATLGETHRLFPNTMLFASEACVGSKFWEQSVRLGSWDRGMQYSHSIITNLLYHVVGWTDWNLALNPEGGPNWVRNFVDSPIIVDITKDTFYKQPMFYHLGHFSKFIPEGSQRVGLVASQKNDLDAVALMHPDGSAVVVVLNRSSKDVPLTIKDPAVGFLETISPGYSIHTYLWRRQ
NCGC Assay Protocol Summary: Both enzyme and substrate were diluted in buffer composed of 50mM citric acid/KH2PO4, 10mM sodium taurocholate and 0.01% tween-20 at pH 5.9. The final concentration of the enzyme was 0.2 nM in both assays. The compound library was titrated in 7 to 15 concentrations for the primary screens with a final concentration ranging from 0.6 nM to 50 uM. This particular assay protocol is for the "red" substrate, and it was performed in 1536-well plate format as follows: Red fluorescence substrate assay: 2 uL enzyme 23 nL compound 1 uL substrate (final concentration of 30 uM) Incubate at room temperature (RT) for 20 minutes Read the plate in Viewlux plate reader (Ex=548(7) and Em=600(10)).
Regarding `COc1cc(C2C(C(=O)N3CCOCC3)=C(C)NC3=C2C(=O)CCC3)ccc1OC(C)=O` (stereo unspecified), the Potency was inactive: > 76.9 µM.

For the compound `CN1CC(=O)NC1=NC(=O)C12CC3CC(CC(C3)C1)C2`, the Potency was inactive: > 76.9 µM. The value for `CCCCc1nnc(NC(=O)CSc2nc(=O)cc(N)n2-c2ccccc2)s1` was inactive: > 76.9 µM. In the case of `CCC(C)Nc1nc2c(c(=O)n(C)c(=O)n2C)n1Cc1cccc(C)c1` (stereo unspecified), the Potency was inactive: > 76.9 µM. Turning to `c1ccc(C2CC(c3cccs3)n3nnnc3N2)cc1` (stereo unspecified), the Potency is inactive: > 76.9 µM.

As for `Cc1cc(C(=O)OCC(=O)c2c(N)n(C)c(=O)n(C)c2=O)c(C)o1`, the Potency is inactive: > 76.9 µM. For the compound `O=C(CSc1ncnc2ccccc12)NCc1ccco1`, the Potency was inactive: > 76.9 µM. For `O=C(c1ccccc1)N1CCCC(C(=O)N2CCCCCC2)C1` (stereo unspecified), the Potency is inactive: > 76.9 µM.

Regarding `O=C(Nc1ccccc1)NC1CCN(Cc2nnnn2C2CCCCC2)CC1`, the Potency was inactive: > 76.9 µM. Turning to `Cc1ccc2c(c1)C1OCCC1C1N2C(=O)C2C(C(=O)O)C3C=CC21O3` (stereo unspecified), the Potency was inactive: > 76.9 µM. Regarding `COc1cccc(C2=NOC(C(=O)NCc3ccc(F)cc3)C2)c1` (stereo unspecified), the Potency is inactive: > 76.9 µM. In the case of `O=C(c1c(F)cccc1F)N1CCC(O)(c2cccnc2)CC1`, the Potency is inactive: > 76.9 µM. On to `CCS(=O)(=O)N1CCC(C(=O)NC2CCCCCCC2)CC1`, for which the Potency was inactive: > 76.9 µM. Regarding `Cc1ccc(NC(=O)CC2C(=O)NC3CCCCC3N2C(=O)c2ccc(F)cc2)cc1C` (stereo unspecified), the Potency is inactive: > 76.9 µM. The value for `COc1ccc(C(=O)Nc2cccc(C(=O)N3CCCC3)c2)cc1` was inactive: > 76.9 µM; that for `CC(c1ccco1)N(C(=O)Nc1ccc(Cl)cc1)c1ccccn1` (stereo unspecified) was inactive: > 76.9 µM; that for `CN(C)S(=O)(=O)c1cccc2nsnc12` was inactive: > 76.9 µM. For `CCc1nnc(NS(=O)(=O)c2ccc(NS(=O)(=O)c3ccccc3)cc2)s1`, the Potency is inactive: > 76.9 µM. With `CCOC(=O)NCc1ccc(Cl)c(Cl)c1`, the Potency is inactive: > 76.9 µM. The value for `Cc1ccc(NC(=O)C2CC=CCC2C(=O)N2CCCCC2)cc1` (stereo unspecified) was inactive: > 76.9 µM; that for `CC1=Nn2c(nnc2-c2cc(C)[nH]n2)SC1` was inactive: > 76.9 µM. In the case of `Cc1cn(COC/C=C/c2ccccc2)c(=O)[nH]c1=O`, the Potency was inactive: > 76.9 µM. In the case of `CN1CCn2c1nc(N1CCOCC1)nc2=O`, the Potency was inactive: > 76.9 µM.

In the case of `NC1=C(c2ccc(F)cc2)C(=O)CS1`, the Potency is inactive: > 76.9 µM. As to `O=C(c1cc(-c2ccccn2)nc2c(Cl)cccc12)N1CCN(C(=O)C2CCCO2)CC1` (stereo unspecified), the Potency is inactive: > 76.9 µM. Turning to `COC(=O)CN(c1c(C)cccc1C)S(C)(=O)=O`, the Potency was inactive: > 76.9 µM.
